From the RNAGym collection of RNA variant scans (doi:10.7554/elife.90254)
Read counts are not given, so values of variants with three or more changes are uncertain.

B1: LINE1-mini (parent)
chain: GGCAGAGCUCAACACAGCGUGGCAAAGUGGCUGUGGCUAGACUGCC

Variants of: B1
Assay: self-cleavage, relative activity (ratio to wild type); higher = more cleavage; in vitro, sequencing; the parent is a self-cleaving ribozyme

Row | Variant | self-cleavage
1 | G7A A16C C23A | 0.28
2 | C8G U9G U38A | 0.01
3 | G5A C13A C18A | 0.05
4 | G21U C37U C42A | 0.01
5 | G1A C13A C18U G30A C31A | 0.14
6 | C18A A26C U34G C37U A41G | 0.09
7 | U9C G17C G29U C42G G44A | 0.01
8 | G17A G22C G30C G33C C45U | 0.01
9 | C10G C15A G17A G21U G29U | 0.01
10 | C3A U28G A41C | 0.05
11 | C13A G21U G36U | 0.53
12 | C15A A24C A39C | 0.02
13 | G30U G35U G36C G44A | 0.02
14 | C8A A14U G36A C45A | 0.28
15 | A25U C37A G44A | 0.05
16 | G19A C37G A41C | 0.01
17 | C13G G29U G44A | 0.17
18 | C15G U20G C23A C31A | 0.01
19 | A4G A26G C42G | 0.02
20 | C10U C15A A41U G44C C46G | 0.04
21 | C18G G36A C46G | 0.02
22 | C3G G21A C37U | 0.08
23 | G7U C10A A12G G35U C46U | 0
24 | A4U C8U A16C U20C C42G | 0.14

Row | Variant | self-cleavage
25 | G27A C31A U38G | 0.05
26 | G21C C23U G36A | 0.05
27 | C3U C8G A12U U32A | 0
28 | G7U U9A G35A U38C G40U | 0.07
29 | A25G G29A U34C G35A | 0.11
30 | C15G U28C U32A | 0.02
31 | A16U G21C U28A | 0.21
32 | A4G C15U G27A G29C | 0.45
33 | G1A A11U C13G G19A A24U | 0.01
34 | G29U G35U G40U | 0.08
35 | A4G A14G U28G | 0.08
36 | G22C C23U G35U | 0.29
37 | A11C C13U U34G G36A | 0.03
38 | G1A C8G A14G | 0.16
39 | G2C A6C U34G C42U | 0.14
40 | G5U G17A U20A G40U C42U | 0
41 | G1A A11U C31A | 0.04
42 | C3A A26U U28G U38G C42U | 0.02
43 | C13U U34C A39C | 0.03
44 | G5U A39G G40C G44U | 0.03
45 | A4G A14G U20A | 0.49
46 | G17U C18A G35A C42U | 0.03
47 | C3G G27C G40A | 0.05
48 | C10A G22C C31U U43A | 0.02

Row | Variant | self-cleavage
49 | C3G A6U C8G G22A | 0.02
50 | A6U G7A A14G | 0.1
51 | G2A G21A A41U | 1.63
52 | G2A G30U U38C U43A | 0.1
53 | C13U C18U U32G | 0.02
54 | G7U C10A G29A G36A U38C G44U | 0.01
55 | G2A C13U U28G U32C | 0.08
56 | G5U C23G G29C | 0.03
57 | G7A G35A U38C | 0.21
58 | C10A C15A G27U | 0.01
59 | G5U A16G C46A | 0.03
60 | A6G U9G A41C | 0.14
61 | G7A C13U C46A | 0.2
62 | A12U A16G U32A G40A | 0.02
63 | C3A G29A C31U U32G U38G | 0.05
64 | A4C G5A A11C G36U | 0.01
65 | C15A G29C U38A A41G | 0.06
66 | C8A A14U U43C | 0.87
67 | U9G A12U C31G | 0.01
68 | C3G C8U A16G | 0.04
69 | C10A A12G C13A | 0.03
70 | A12U C13A C18A | 0.04
71 | G5U G21A C23G U28G | 0
72 | C10A A14U G27U G29A | 0.04

Row | Variant | self-cleavage
73 | A6G A14G G36A | 0.07
74 | G7C A12C C15U G30U C45U | 0.03
75 | C3A G5U C13G A25C U28A G36C | 0.43
76 | G2C U34C G40C | 0.1
77 | G29A G30C G33A G35C A39C C46G | 0.03
78 | C15U C18U G21A | 0.27
79 | A6G C13U G27U G30C U34C G44A | 0.1
80 | C8G A11U A16G C46U | 0.01
81 | G17C G19A G33U | 0.04
82 | A6U C15U G40U | 0.21
83 | A12G A16C A39U | 0.02
84 | A6C C18U C23U | 2.05
85 | A6G A26C U38G | 0.01
86 | G1C G17C G22C A26U U43A | 0.01
87 | A11G A16U U38G | 0
88 | G5U G17C G36A | 0.05
89 | A6U C13U C18U A26U G30A C46G | 0.02
90 | C13U A24C G36U | 0.07
91 | G36A A41U G44U | 0.02
92 | A4U U20G G29U | 0.92
93 | C8G G29U C46U | 0.08
94 | G1A C13U U34G C42U | 0.02
95 | G5A C23U C37U G40U G44A | 0.03
96 | G7A C10A C45A | 0.01

Row | Variant | self-cleavage
97 | A6G U20G G35A | 0.08
98 | C15A A26U C42U | 0.02
99 | C10G A12U G19C G21C G29U | 0
100 | C13A A14C G21U U34A | 0.06
101 | C3A A14C U20C C23A | 0.03
102 | G5A G7U A14G G22U A26U G40U | 0.3
103 | U9C C13U C42A | 0.02
104 | C31G G40U C42U | 0.04
105 | U20C G21A A39G C46U | 0.03
106 | U28G G29A G36U A41G | 0.08
107 | C3A A4G U32C G33U | 0.08
108 | C8G A14G U20A C42A | 0.02
109 | A12C G19A G30U G35A C45A | 0.07
110 | C13U G19U A24C A26U C46A | 0.06
111 | A6U C8A C18A C23A C45G | 0.45
112 | A14C U20A G22C | 0.05
113 | G2A C8A C18A A26G | 1.59
114 | A6G A14U C15A G36C | 0.05
115 | C3U G5U U9G C13U C23G U32C C45U | 0.02
116 | A16C C23U U32C G35C | 0.02
117 | G1A G5A C13U U43G C45G | 0.43
118 | U9G A16G G17C C23A C45G | 0.2
119 | G7C A14G A16C C37A A39C C46A | 0.01
120 | C13G C18G A39G U43A C45U | 0.04

Row | Variant | self-cleavage
121 | A14C G22A A39U C42U | 0.01
122 | A6G A11C G19A C23U | 0.02
123 | A14C G21A G33U | 0.02
124 | G2U C3G C10G A11G G22A U38A | 0.01
125 | C13G G22U C23A A39C | 0.07
126 | A12G G27C U38G A41C | 0
127 | C3A C13A A16U G21U | 0.52
128 | A12C A14U C31A G35A G44A | 0.04
129 | C8U A24G U28A G44U | 0.18
130 | C18U A25C C37U A39C | 0.04
131 | C3A C13G G17C G29C G33C G40C | 0.31
132 | G19A G22U C23A A39C | 0.11
133 | C3U U9C A11G C15A U20G G21A | 0.01
134 | C3A G5C G30U | 0.05
135 | A14C G19C C42U | 0.04
136 | C10G A39C U43C | 0.01
137 | A14G C18U G27U U32C C37A G40U | 0.01
138 | G7U C15G G21A G44A C46G | 0.08
139 | A25G A26U G27A | 0.72
140 | A6U G21C C46U | 0.66
141 | C15A A25C A41U | 0.04
142 | U20G A25G U43G | 0
143 | A11C G30U G35A | 0.02
144 | A14C G40A C42U | 0.14

Row | Variant | self-cleavage
145 | A6C A12G U20G | 0.02
146 | G7U C10U G22C | 0.03
147 | A11C C31G C46U | 0
148 | G1C G7C A14C | 0.01
149 | A6G C8A A25U U38C | 0.12
150 | C3U G17C A25C U43A | 0.06
151 | C13U A16U U38A A39U | 0.02
152 | A14C C15A C23A A25G C31A G40U | 0
153 | C8U G30U G35U | 0.22
154 | C10A A39G A41G | 0
155 | G5U C8U A14U C23U G29C C31U G40C | 0.04
156 | U20G G29A C42U | 0.13
157 | G2U C13U A14C A25C U32C U38C | 0.26
158 | C8U G30A U34A G36A | 0.01
159 | G7A C15U C23G G36U | 0.47
160 | G5A A11U A12U C46U | 0.02
161 | C13U A16C C18G G27A G29U | 0.15
162 | C10A G27U U38G | 0.03
163 | U9G A16C G21U G40C U43C | 0.02
164 | G1C G5A A12C G36A G44C | 0.02
165 | C13A A16C G17A G36A A39G | 0.03
166 | A14U G27U U34G G35U C37A | 0.08
167 | A6C C18A C23U U28G G30U | 0.19
